Data reported in the supplement of paper PMC3334620.
Over roughly 33,000 sequences, “E-score (-0.5 to 0.5)” has its median near -0.04; the highest 2% begin near 0.36. This is one part of the list.

The sequences below were run against T1, Hmlalpha2 (UniProt P0CY09) (assay: PBM E-score (8-mer binding enrichment) (E-score (-0.5 to 0.5)); higher = stronger / more preferred TF binding; most listed sequences are background and not binding sites). Details: protein concentration: 200 nM; construct: GST-full length.
T1 sequence: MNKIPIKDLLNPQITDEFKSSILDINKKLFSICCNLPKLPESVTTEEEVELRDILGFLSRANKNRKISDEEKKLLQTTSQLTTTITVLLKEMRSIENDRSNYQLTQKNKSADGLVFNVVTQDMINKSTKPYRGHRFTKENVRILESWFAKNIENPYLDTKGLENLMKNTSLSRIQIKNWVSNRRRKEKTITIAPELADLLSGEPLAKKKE
Outline: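 The E-score, a modified Wilcoxon-Mann-Whitney statistic, was computed by the Universal PBM Analysis Suite for every ungapped eight-base word pooled with its reverse complement. Scans behind it were normalised with masliner after bound GST-tagged yeast transcription factors were detected with fluorescent anti-GST. The proteins, at about 100-200 nM, had been applied to universal all-10-mer Agilent arrays made double-stranded by primer extension.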

Going from AACGTATG to AGGAGTTA, the “PBM E-score” value falls from 0.215 to -0.0534.

Compared with TACGGGAA, CGGGAGAA is higher in “PBM E-score” value: -0.224 for the first, -0.177 for the second.

Compared with CAAGAGGG, ATGGATGA is higher in “PBM E-score” value: -0.15 for the first, -0.117 for the second.

Compared with AGGGCTAT, ACCTAGTC is lower in “PBM E-score” value: -0.121 for the first, -0.177 for the second.

Going from CCTCATGA to TCACATCA, the “PBM E-score” value rises from -0.085 to 0.00787.

Compared with GACCACCC, ATCCGTTG is higher in “PBM E-score” value: -0.32 for the first, -0.024 for the second.

First: TACACGAA
Second: CCTATCCA
The “PBM E-score” value of the first is higher: 0.456 for the first, -0.143 for the second.

Compared with ACCTTGAA, ATACGATA is lower in “PBM E-score” value: 0.185 for the first, 0.143 for the second.

Compared with GCCTGGCC, CCGGAGCC is higher in “PBM E-score” value: -0.304 for the first, -0.185 for the second.

First: GACTATGC
Second: AAGCCTTG
The “PBM E-score” value of the first is higher: -0.0295 for the first, -0.0991 for the second.

First: ACGTAAGT
Second: AAATTACG
The “PBM E-score” value of the first is lower: 0.216 for the first, 0.309 for the second.

Going from ACGAACTG to AGGGATGC, the “PBM E-score” value falls from -0.0912 to -0.363.

First: ACTATGAC
Second: ATTTGTCG
The “PBM E-score” value of the first is lower: -0.069 for the first, 0.0833 for the second.

Compared with GGGACCAA, GCTCAGCC is higher in “PBM E-score” value: -0.237 for the first, -0.167 for the second.

Going from AAGGATTC to CAAACTAA, the “PBM E-score” value rises from -0.0197 to 0.163.

Going from AGTAGTAG to CCTTACAA, the “PBM E-score” value rises from 0.0127 to 0.173.

Going from AATATACT to ACTTGCCC, the “PBM E-score” value rises from 0.0111 to 0.0516.

Compared with CTCCGCCA, GAGGGGCC is lower in “PBM E-score” value: -0.207 for the first, -0.278 for the second.

Compared with CGATCCCG, TATGGTGA is higher in “PBM E-score” value: -0.265 for the first, -0.0973 for the second.

Going from AGCGTGGC to CTGTCGGC, the “PBM E-score” value falls from -0.0937 to -0.259.

Going from GATTTGAC to CCAGCTGC, the “PBM E-score” value falls from 0.0978 to -0.33.

First: AATCTATG
Second: ATAAGCTC
The “PBM E-score” value of the first is higher: 0.107 for the first, -0.121 for the second.

Compared with ACACGCTG, CGAAACCC is lower in “PBM E-score” value: 0.355 for the first, -0.121 for the second.

Going from CATAGTTA to ACTTCGCT, the “PBM E-score” value falls from 0.187 to -0.048.

First: ATAGCCCA
Second: CCCTGACA
The “PBM E-score” value of the first is higher: 0.02 for the first, -0.0343 for the second.

Compared with CCCCGCGA, CGGAGGTC is higher in “PBM E-score” value: -0.24 for the first, -0.166 for the second.

Compared with CAATTTGA, TACAACGA is higher in “PBM E-score” value: 0.126 for the first, 0.2 for the second.

First: GAGGACAA
Second: CAAGTGTA
The “PBM E-score” value of the first is lower: -0.166 for the first, 0.0757 for the second.

Compared with GCGCGCAA, ACAAGGAA is higher in “PBM E-score” value: -0.00701 for the first, 0.165 for the second.

First: CTACTATA
Second: AAGTTGGT
The “PBM E-score” value of the first is lower: 0.00693 for the first, 0.122 for the second.

First: ACAATCCC
Second: AGTACTCA
The “PBM E-score” value of the first is lower: -0.0503 for the first, -0.00626 for the second.

Going from GTACCGGA to CGCCGTCC, the “PBM E-score” value falls from -0.0374 to -0.0603.

Going from CCGGGATA to GGGGGTTA, the “PBM E-score” value falls from -0.154 to -0.36.

First: CTATGTGC
Second: AGTCGTGA
The “PBM E-score” value of the first is higher: 0.061 for the first, -0.177 for the second.

First: CGGGCGAC
Second: AGCATGCG
The “PBM E-score” value of the first is lower: -0.227 for the first, 0.12 for the second.

Going from CCGGTCTC to ACTAGAGA, the “PBM E-score” value rises from -0.202 to -0.122.

First: CTTGGACC
Second: GGGGTTAC
The “PBM E-score” value of the first is lower: -0.137 for the first, -0.121 for the second.

Compared with AGCAGAAC, CGGGAATA is lower in “PBM E-score” value: 0.0637 for the first, -0.0282 for the second.

Compared with GGCGACCC, GACCATAC is higher in “PBM E-score” value: -0.377 for the first, -0.14 for the second.

Going from CGTATTGC to ACGTTGGC, the “PBM E-score” value falls from 0.127 to 0.104.

First: AAACGCAG
Second: AGCACTTG
The “PBM E-score” value of the first is higher: 0.192 for the first, -0.22 for the second.

Compared with GACTGGTA, AAGTTCAG is higher in “PBM E-score” value: -0.0244 for the first, 0.0354 for the second.

Going from CGCTGACC to AGTTAAGA, the “PBM E-score” value rises from -0.123 to 0.228.

Going from ACCTTCCC to CTAGCACC, the “PBM E-score” value rises from -0.261 to -0.157.

Compared with GAGGTCGA, GTGGATAA is higher in “PBM E-score” value: -0.0826 for the first, -0.0775 for the second.

Going from AAACAACG to AGGCCTTG, the “PBM E-score” value falls from 0.17 to -0.0676.

Compared with CGGTAGAG, CGGCCCGC is higher in “PBM E-score” value: -0.337 for the first, -0.265 for the second.

First: AGGCTGGC
Second: AGAAGCCT
The “PBM E-score” value of the first is lower: -0.252 for the first, 0.0561 for the second.

First: AAAATATC
Second: AGAATAAC
The “PBM E-score” value of the first is lower: 0.0612 for the first, 0.256 for the second.

First: CGGTACAA
Second: AGTCCATG
The “PBM E-score” value of the first is higher: -0.00388 for the first, -0.0455 for the second.

Compared with GCTGATCC, ACCTGAAC is higher in “PBM E-score” value: -0.297 for the first, -0.0757 for the second.

Going from GCCGTCGA to TCACCCAA, the “PBM E-score” value rises from -0.131 to -0.109.

Going from CAACCACC to ATTGCCGC, the “PBM E-score” value rises from -0.218 to -0.0809.

First: ATGGAGGG
Second: GGCTCCCA
The “PBM E-score” value of the first is higher: -0.152 for the first, -0.244 for the second.

AAGATGGG was tested, and the “PBM E-score” value was -0.247.
